# Data published in the supplement of paper PMC3334620.
# Whole data set: some 33,000 sequences, median “E-score (-0.5 to 0.5)” near -0.016, cut for the highest 2% near 0.31. The list shows a part of the results.
# Target: Cst6 (UniProt P40535)
# Assay: PBM E-score (8-mer binding enrichment) (E-score (-0.5 to 0.5)); higher = stronger / more preferred TF binding; most listed sequences are background and not binding sites
# Settings: protein concentration: 200 nM; construct: GST-DNA-binding domain
# Method: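 Universal 'all 10-mer' protein binding microarrays (Agilent AMADID 015681) probed with GST-tagged S. cerevisiae TFs (full-length or DBD) made by in vitro transcription/translation (PURExpress), about 100-200 nM. Bound TF was detected with fluorescent anti-GST. Each ungapped 8-mer (which stands for itself and its reverse complement) is scored by the PBM enrichment score (E-score), a modified Wilcoxon-Mann-Whitney statistic from -0.5 to +0.5, computed with the Universal PBM Analysis Suite. Scale: above 0.35 generally sequence-specific binding.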
row,Sequence,PBM E-score
1,ATACCATG,-0.105
2,AGGAATAA,0.107
3,CCGATTTA,0.0277
4,ACCTAAGA,0.0966
5,CATCCGTA,0.22
6,CACACGTG,0.223
7,GAGCACCA,-0.219
8,CCGCCAAG,-0.307
9,CGCCTGGC,-0.209
10,ACAAGACG,-0.0785
11,AGGGGTGG,-0.17
12,GATCAAGC,0.0222
13,CAAGACTG,-0.00228
14,CAGATTGA,0.123
15,CAATAGTG,0.0792
16,GGTGGAGA,-0.338
17,CTGGTGAC,0.263
18,GGAAAGCA,-0.0362
19,CGACTTAA,-0.00064
20,CGAACTGC,-0.214
21,AGAAACTG,0.0398
22,GGCAATAA,-0.00855

row,Sequence,PBM E-score
1,CTCCTGCC,-0.112
2,TGTCGAAA,0.0613
3,AGTAAGGG,-0.0903
4,ATCTAGTG,-0.101
5,AAACGAGC,0.104
6,ACACGTCT,0.0155
7,ATTCACCA,0.0508
8,CTTGTACA,0.0414
9,CTACACCA,0.0191
10,CCAACATC,-0.192
11,AAACCGCT,-0.187
12,ACATGGTC,-0.0428
13,CCTGAGCC,-0.213
14,AGTTTAAT,0.184
15,TCTTGGCA,0.205
16,AATCTAAG,0.00119
17,CCAAGCTA,-0.266
18,AAATAGAG,0.094
19,CGGGAACA,0.0552
20,AACGACAG,0.0574
21,GACGCCAA,0.111
22,GAAGAGTA,-0.0467

row,Sequence,PBM E-score
1,CCCAGAAA,-0.016
2,GGGCAAAC,-0.12
3,TAGCCGGA,-0.0545
4,ACGTGTGG,0.0682
5,CTCGGCAC,-0.0863
6,CGTTCTGC,-0.0293
7,ACCAAGCC,-0.235
8,AGTTGTGG,0.159
9,AAGGCTAC,-0.0533
10,GCGGTAAA,0.149
11,ACCTCCCC,-0.226
12,CCCGCCCG,-0.0149
13,ATACCTCC,-0.244
14,ACGCTCCA,-0.0805
15,TCTCCGAA,-0.0577
16,AACATACC,0.0667
17,AGATTGAA,0.122
18,TCATACCA,0.097
19,ACAGGATA,0.0807
20,CGCGGTAG,-0.122
21,GCTACAGA,-0.21
22,CCTGACCA,0.04

row,Sequence,PBM E-score
1,CAGACTTA,-0.094
2,GCGACAAA,0.0926
3,ACACTGAA,0.171
4,ATCTCAAA,0.203
5,GATATCAA,0.223
6,GAACTGCA,-0.0481
7,TGTGGCAA,0.134
8,GACTCCAA,-0.306
9,CAAGACTA,-0.114
10,CATGGGAG,-0.159
11,GCATACCC,-0.111
12,CTCTGCCA,-0.00779
13,CTCGGACA,-0.122
14,CCTAACTC,-0.194
15,CAAACGTC,0.137
16,GCTCGTTA,-0.151
17,ATAACAAC,0.171
18,ATATTAAC,0.303
19,CGTAGGCA,-0.151
20,AATGGCTC,-0.0445
